In publication PMC2828547:
These are yes or no findings as the source states them, for the method shown. For some of these results: In cells and extracts the contact can be indirect. Some binding calls cover weakened binding; strength is not graded here. For some of these results: Where a sequence is shown, tags or fusion partners need not be part of it.

Protein sequences, listed by entry. Tags and fused reporters are not part of them.
UniProt Q13838: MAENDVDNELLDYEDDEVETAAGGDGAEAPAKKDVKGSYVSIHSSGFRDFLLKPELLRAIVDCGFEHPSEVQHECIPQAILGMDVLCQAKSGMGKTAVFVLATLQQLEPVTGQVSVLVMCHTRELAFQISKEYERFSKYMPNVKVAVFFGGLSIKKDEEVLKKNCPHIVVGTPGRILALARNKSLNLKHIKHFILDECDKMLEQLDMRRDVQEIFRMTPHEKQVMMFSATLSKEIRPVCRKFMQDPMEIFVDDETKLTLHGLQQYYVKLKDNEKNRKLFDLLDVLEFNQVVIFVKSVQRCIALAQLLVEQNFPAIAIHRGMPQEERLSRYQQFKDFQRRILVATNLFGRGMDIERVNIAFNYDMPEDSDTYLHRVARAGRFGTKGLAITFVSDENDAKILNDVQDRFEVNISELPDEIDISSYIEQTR

What was measured:
GST-UAP56 = GST-UAP56 (UniProt Q13838); test: pull-down; GST-UAP56 with 35S-labeled UIF proteins generated with rabbit reticulocyte lysate; only the target purified
FLAG-UIF (human) = target: T1, FLAG-UIF (human) (UniProt Q96QD9); test: co-IP; recombinant NXF1-p15 added in increasing amounts to the FLAG-UIF / Myc UAP56 immunoprecipitation; read out as displacement of UAP56; only the binder purified
T1 sequence: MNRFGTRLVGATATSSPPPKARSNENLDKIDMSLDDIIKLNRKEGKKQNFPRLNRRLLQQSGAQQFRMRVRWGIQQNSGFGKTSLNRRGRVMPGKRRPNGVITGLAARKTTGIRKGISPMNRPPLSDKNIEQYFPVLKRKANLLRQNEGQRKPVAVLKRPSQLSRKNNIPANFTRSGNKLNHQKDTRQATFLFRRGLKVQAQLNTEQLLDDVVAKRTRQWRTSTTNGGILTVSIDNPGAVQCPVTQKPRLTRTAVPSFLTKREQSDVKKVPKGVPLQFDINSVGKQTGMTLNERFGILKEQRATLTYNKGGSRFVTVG

GST-NXF1-p15 = target: T2, GST-NXF1-p15 (UniProt Q9UBU9); test: pull-down; competition: GST-NXF1-p15 complexed with GB1-UIF, increasing amounts of GB1-6His-REF2-I; Coomassie staining; both purified
T2 sequence 1: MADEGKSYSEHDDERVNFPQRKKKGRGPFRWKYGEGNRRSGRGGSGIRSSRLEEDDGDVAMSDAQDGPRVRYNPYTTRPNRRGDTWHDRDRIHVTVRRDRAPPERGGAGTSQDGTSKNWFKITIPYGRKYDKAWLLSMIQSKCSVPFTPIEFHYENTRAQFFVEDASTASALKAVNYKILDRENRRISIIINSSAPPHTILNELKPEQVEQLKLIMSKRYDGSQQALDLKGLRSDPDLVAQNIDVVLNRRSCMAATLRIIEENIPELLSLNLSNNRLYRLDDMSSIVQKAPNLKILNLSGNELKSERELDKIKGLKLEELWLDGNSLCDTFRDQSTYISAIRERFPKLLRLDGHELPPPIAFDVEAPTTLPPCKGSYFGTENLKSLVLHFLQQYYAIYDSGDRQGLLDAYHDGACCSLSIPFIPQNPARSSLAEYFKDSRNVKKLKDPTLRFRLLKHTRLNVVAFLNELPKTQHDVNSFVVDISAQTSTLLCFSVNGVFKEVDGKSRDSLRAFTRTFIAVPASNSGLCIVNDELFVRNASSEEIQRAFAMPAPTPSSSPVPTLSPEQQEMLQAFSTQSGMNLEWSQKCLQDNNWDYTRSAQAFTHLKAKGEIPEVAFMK
T2 sequence 2: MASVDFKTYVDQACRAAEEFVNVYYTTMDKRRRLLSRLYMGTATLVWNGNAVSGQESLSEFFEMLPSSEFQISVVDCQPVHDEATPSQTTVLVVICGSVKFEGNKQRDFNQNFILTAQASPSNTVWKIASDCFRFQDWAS

[1] = target: T3, GST fusion of NXF1 (Figure 2B) (UniProt Q9UBU9); test: pull-down; GST fusion proteins with purified UIF in the presence of RNase; Coomassie staining; both purified
T3 sequence: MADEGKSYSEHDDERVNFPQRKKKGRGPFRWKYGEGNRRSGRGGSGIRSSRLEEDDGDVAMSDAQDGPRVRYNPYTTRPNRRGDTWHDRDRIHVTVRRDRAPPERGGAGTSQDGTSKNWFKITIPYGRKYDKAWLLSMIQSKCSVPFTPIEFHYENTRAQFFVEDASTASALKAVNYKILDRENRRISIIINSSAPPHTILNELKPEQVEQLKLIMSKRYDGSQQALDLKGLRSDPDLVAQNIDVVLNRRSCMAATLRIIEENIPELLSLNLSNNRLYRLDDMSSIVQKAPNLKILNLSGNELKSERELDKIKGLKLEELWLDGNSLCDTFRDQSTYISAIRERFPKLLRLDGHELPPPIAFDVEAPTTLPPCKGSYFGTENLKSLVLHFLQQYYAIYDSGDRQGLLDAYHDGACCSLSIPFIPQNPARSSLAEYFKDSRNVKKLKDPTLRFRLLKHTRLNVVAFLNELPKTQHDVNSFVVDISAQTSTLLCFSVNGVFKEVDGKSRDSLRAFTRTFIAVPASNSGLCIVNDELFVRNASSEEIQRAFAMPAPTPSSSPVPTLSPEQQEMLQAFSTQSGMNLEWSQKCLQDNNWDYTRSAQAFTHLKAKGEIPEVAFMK

B1: 35S-labeled UIF (protein, UniProt Q96QD9 1-318)
chain: MNRFGTRLVGATATSSPPPKARSNENLDKIDMSLDDIIKLNRKEGKKQNFPRLNRRLLQQSGAQQFRMRVRWGIQQNSGFGKTSLNRRGRVMPGKRRPNGVITGLAARKTTGIRKGISPMNRPPLSDKNIEQYFPVLKRKANLLRQNEGQRKPVAVLKRPSQLSRKNNIPANFTRSGNKLNHQKDTRQATFLFRRGLKVQAQLNTEQLLDDVVAKRTRQWRTSTTNGGILTVSIDNPGAVQCPVTQKPRLTRTAVPSFLTKREQSDVKKVPKGVPLQFDINSVGKQTGMTLNERFGILKEQRATLTYNKGGSRFVTVG
modifications: 35S-labeled
- binding (GST-UAP56): binds

B2: recombinant NXF1-p15 (complex, UniProt Q9UBU9 1-619; Q9UKK6 1-140)
chain 1: MADEGKSYSEHDDERVNFPQRKKKGRGPFRWKYGEGNRRSGRGGSGIRSSRLEEDDGDVAMSDAQDGPRVRYNPYTTRPNRRGDTWHDRDRIHVTVRRDRAPPERGGAGTSQDGTSKNWFKITIPYGRKYDKAWLLSMIQSKCSVPFTPIEFHYENTRAQFFVEDASTASALKAVNYKILDRENRRISIIINSSAPPHTILNELKPEQVEQLKLIMSKRYDGSQQALDLKGLRSDPDLVAQNIDVVLNRRSCMAATLRIIEENIPELLSLNLSNNRLYRLDDMSSIVQKAPNLKILNLSGNELKSERELDKIKGLKLEELWLDGNSLCDTFRDQSTYISAIRERFPKLLRLDGHELPPPIAFDVEAPTTLPPCKGSYFGTENLKSLVLHFLQQYYAIYDSGDRQGLLDAYHDGACCSLSIPFIPQNPARSSLAEYFKDSRNVKKLKDPTLRFRLLKHTRLNVVAFLNELPKTQHDVNSFVVDISAQTSTLLCFSVNGVFKEVDGKSRDSLRAFTRTFIAVPASNSGLCIVNDELFVRNASSEEIQRAFAMPAPTPSSSPVPTLSPEQQEMLQAFSTQSGMNLEWSQKCLQDNNWDYTRSAQAFTHLKAKGEIPEVAFMK
chain 2: MASVDFKTYVDQACRAAEEFVNVYYTTMDKRRRLLSRLYMGTATLVWNGNAVSGQESLSEFFEMLPSSEFQISVVDCQPVHDEATPSQTTVLVVICGSVKFEGNKQRDFNQNFILTAQASPSNTVWKIASDCFRFQDWAS
- binding (FLAG-UIF (human)): binds

B3: GB1-6His-UIF (protein, UniProt Q96QD9 1-318)
chain: MNRFGTRLVGATATSSPPPKARSNENLDKIDMSLDDIIKLNRKEGKKQNFPRLNRRLLQQSGAQQFRMRVRWGIQQNSGFGKTSLNRRGRVMPGKRRPNGVITGLAARKTTGIRKGISPMNRPPLSDKNIEQYFPVLKRKANLLRQNEGQRKPVAVLKRPSQLSRKNNIPANFTRSGNKLNHQKDTRQATFLFRRGLKVQAQLNTEQLLDDVVAKRTRQWRTSTTNGGILTVSIDNPGAVQCPVTQKPRLTRTAVPSFLTKREQSDVKKVPKGVPLQFDINSVGKQTGMTLNERFGILKEQRATLTYNKGGSRFVTVG
- binding (GST-NXF1-p15): binds

B4: purified UIF (recombinant) (protein, UniProt Q96QD9 1-318)
chain: MNRFGTRLVGATATSSPPPKARSNENLDKIDMSLDDIIKLNRKEGKKQNFPRLNRRLLQQSGAQQFRMRVRWGIQQNSGFGKTSLNRRGRVMPGKRRPNGVITGLAARKTTGIRKGISPMNRPPLSDKNIEQYFPVLKRKANLLRQNEGQRKPVAVLKRPSQLSRKNNIPANFTRSGNKLNHQKDTRQATFLFRRGLKVQAQLNTEQLLDDVVAKRTRQWRTSTTNGGILTVSIDNPGAVQCPVTQKPRLTRTAVPSFLTKREQSDVKKVPKGVPLQFDINSVGKQTGMTLNERFGILKEQRATLTYNKGGSRFVTVG
- binding [1]: binds
